# Assay results as given in PubChem BioAssay AID894 (National Center for Advancing Translational Sciences (NCATS), 2007).
# Screen size: about 150,000 compounds; about 6,500 (4.3%) were called active. The inconclusive results got no clear call from the source; some entries with a clear call stand among them for comparison. Calls follow the shape of the dose curve; as a rule, active = well fitted inhibition curve with a large enough effect (not every such curve was filed as active); inconclusive = small, poorly fitted or top-dose-only effect, or another doubt; inactive = no such curve, though single readings can be large or run the other way. Potencies of inconclusive entries are left out as doubtful fits.
# Molecular target: 15-hydroxyprostaglandin dehydrogenase [NAD(+)] (Homo sapiens) (UniProt P15428)
# UniProt P15428, sequence (P15428 whole entry, looked up): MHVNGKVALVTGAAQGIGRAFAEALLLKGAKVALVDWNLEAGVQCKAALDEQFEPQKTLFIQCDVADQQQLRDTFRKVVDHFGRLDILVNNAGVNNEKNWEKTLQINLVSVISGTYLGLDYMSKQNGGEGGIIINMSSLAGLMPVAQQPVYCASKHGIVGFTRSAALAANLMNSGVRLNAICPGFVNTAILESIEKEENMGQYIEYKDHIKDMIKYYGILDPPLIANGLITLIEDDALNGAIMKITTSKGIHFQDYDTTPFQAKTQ
# Experiment: qHTS Assay for Inhibitors of HPGD (15-Hydroxyprostaglandin Dehydrogenase)
# Conditions: purified HPGD, NADH fluorescence kinetic, PGE2 substrate; activity change, negative = inhibition: hits give low values
# Source text: Human 15-Hydroxyprostaglandin dehydrogenase (HPGD) catalyzes the inactivation of prostaglandin E2, and plays a major role in cancer biology by antagonizing the oncogenic potential of cyclooxygenase type 2 (COX2). Assays are available, based on absorbance/fluorescence increase of NADH with the substrate 15-OH prostaglandin E2. References 1. Myung SJ, Rerko RM, Yan M, Platzer P, Guda K, Dotson A, Lawrence E, Dannenberg AJ, Lovgren AK, Luo G, Pretlow TP, Newman RA, Willis J, Dawson D, Markowitz SD. 15-Hydroxyprostaglandin dehydrogenase is an in vivo suppressor of colon tumorigenesis. […] 2. Yan M, Rerko RM, Platzer P, Dawson D, Willis J, Tong M, Lawrence E, Lutterbaugh J, Lu S, Willson JK, Luo G, Hensold J, Tai HH, Wilson K, Markowitz SD. 15-Hydroxyprostaglandin dehydrogenase, a COX-2 oncogene antagonist, is a TGF-beta-induced suppressor of human gastrointestinal cancers. Proc Natl Acad Sci U S A. 2004 Dec 14;101(50):17468-73. 3. Yang L, Amann JM, Kikuchi T, Porta R, Guix M, Gonzalez A, Park KH, Billheimer D, Arteaga CL, Tai HH, Dubois R, Carbone DP, Johnson DH. Inhibition of Epidermal Growth Factor Receptor Signaling Elevates 15-Hydroxyprostaglandin Dehydrogenase in Non-Small-Cell Lung Cancer. Cancer Res. 2007 Jun 15;67(12):5587-5593. Inhibition of HPGD activity was screened by utilizing prostaglandin as an electron donor and NAD+ as an electron acceptor/cofactor. An increase in the fluorescence intensity due to conversion of NAD+ to NADH was used to measure the enzyme activity. NIH Chemical Genomics Center [NCGC] Structural Genomics Consortium [SGC]
# Buffer: 50 mM Tris-HCl, 0.01% Tween 20, pH 8. Enzyme Buffer: 50 mM Tris-HCl, 0.5 mM NAD+ and 0.01% Tween 20, pH 8. Reagents/Controls: Buffer in columns 3 and 4 as negative control (no enzyme). Substrate/cofactor solution: 1 mM NAD+ and 30 uM prostaglandin (Sigma, prostaglandin E2, # P5640) final concentrations dispensed throughout the plate. Enzyme: 20 nM HPGD final concentration in columns 1, 2, 5-48. Column 1 and 2 is neutral (100% activity). A titration of control inhibitor GW5074 (G6416 Sigma-Aldrich, St. Louis, MO) top concentration 10 mM in DMSO, then 1:2 dilution for a total of 16 concentrations in duplicate) was pin-transferred into column 2. Assay Steps: Three uL of enzyme were dispensed to 1536-well Greiner black solid bottom plates. Compounds and control inhibitor (23 nL) were transferred via Kalypsys PinTool. The plates were incubated for 15 min at room temperature, and then 1 uL of substrate/cofactor solution was added to start the reaction. The plates were immediately transferred to and read 5 times every 30 seconds on ViewLux High-throughput CCD imager (Perkin-Elmer) using 360 nm excitation and 450 nm emission fluorescence protocol. The fluorescence intensity difference between the last and the first time points was used to compute reaction progress.
# % is scaled to controls: 0 for no effect and ±100 for the full control effect; potency is read from the fitted curve at half-maximal effect; tags tell the direction and shape of the fitted curve.
Compound,Potency,"activity change, negative = inhibition"
CN(Cc1ccccc1)c1oc(-c2ccco2)nc1C#N,"inconclusive [inhibitor, partial curve]",
Cc1cc2nc(C3CCN(Cc4nnnn4Cc4ccccc4)CC3)[nH]c2cc1C,,inactive: -2.58%
COc1ccc2[nH]c3c(NCc4ccco4)ncnc3c2c1,"inconclusive [inhibitor, partial curve]",
CCOC(=O)c1cnc2c(-c3ccc(Cl)cc3)c(C)nn2c1N,"inconclusive [inhibitor, partial curve]",
CCOC(=O)C1CCCN(c2cc(NCCCO)c([N+](=O)[O-])c3nonc23)C1 (stereo unspecified),active: 12.6 µM,
O=C(CN(Cc1ccccc1)C(=O)c1ccc2c(c1)OCCO2)NCc1ccc2c(c1)OCO2,,inactive: -6.78%
Cc1ccc(-c2nc3ccccc3s2)cc1NC(=O)c1cc(-n2cnnc2)ccc1Cl,,inactive: -21.6%
COC(=O)c1nn(-c2ccccc2)c(Sc2ccc(Cl)cc2)c1/C=N/O,,inactive: -11.5%
Cc1cccc(NC(=O)C2CC(=O)n3cnnc3S2)c1 (stereo unspecified),active: 10 µM,
Fc1ccccc1CSc1nnc(-c2cccs2)o1,active: 28.2 µM,
CCSC1=N/C(=C\c2ccc(OC)cc2)C(=O)N1,"inconclusive [inhibitor, partial curve]",
O=c1nc2ccccc2c2n1C[C@H](CN1CCN(c3ccccc3)CC1)N2,"inconclusive [inhibitor, single point]",
Cc1cccc(NC(=S)NNC(=S)NCc2ccccc2)c1,"inconclusive [inhibitor, partial curve, poor fit]",
O=C(NCCCn1ccnc1)C(Cc1ccccc1)N1C(=O)c2ccccc2C1=O (stereo unspecified),"inconclusive [inhibitor, partial curve]",
C/C(=N/NC(=O)CNC(=O)COc1ccccc1)c1ccco1,,inactive: -8.98%
Cc1ccc(-c2cc(C(=O)NCC3CCCO3)no2)cc1 (stereo unspecified),active: 14.1 µM,
CCN(CC)CCN1C(=O)c2ccccc2NC1c1ccc(F)cc1 (stereo unspecified),"inconclusive [inhibitor, partial curve, poor fit]",
COc1ccc2nc(Nc3nc(C)c(C(C)=O)s3)sc2c1,"inconclusive [inhibitor, partial curve]",
CC(C)=CCOc1ccc(/C=C/C(=O)c2ccc(OCC=C(C)C)cc2OCC(=O)O)cc1,active: 11.2 µM,
COc1ccc(S(=O)(=O)Nc2cc(C(=O)NC3CCCCCC3)ccc2N2CCOCC2)cc1,,inactive: -11.3%
CNC(=S)N(CCc1ccccc1)Cc1cc2cc(OC)c(OC)cc2[nH]c1=O,"inconclusive [inhibitor, partial curve]",
CC(C)Cc1nc2oc3c(=O)[nH]cnc3c2c2c1CCC2,"inconclusive [inhibitor, partial curve]",
CC(C)(C)C(=O)NCCc1nc2ccccc2n1CC(=O)c1ccc(Cl)cc1,,inactive: -17.5%
NC(=O)c1sc2nc(N3CCOCC3)c3c(c2c1N)CCCC3,"inconclusive [inhibitor, partial curve]",

Compound,Potency,"activity change, negative = inhibition"
O=C(NC1CCCC1)C(c1ccncc1)N(Cc1cccs1)C(=O)c1csnn1 (stereo unspecified),,inactive: -18.2%
COc1ccc(-c2cc(-c3nnc(COC(=O)CC4CC5CCC4C5)o3)c3ccccc3n2)cc1OC (stereo unspecified),"inconclusive [inhibitor, partial curve]",
CCCC(=O)N1CCN(c2ccc(NC(=O)c3ccc(OCC)c([N+](=O)[O-])c3)cc2)CC1,,inactive: -15.3%
CC(=O)N1N=C(c2ccccc2O)OC1(C)CC(=O)Nc1ccccc1 (stereo unspecified),"inconclusive [inhibitor, partial curve]",
CS(=O)(=O)c1nc(-c2ccco2)cc(C(F)(F)F)n1,"inconclusive [inhibitor, partial curve]",
CCOC(=O)[C@@H](O)Cc1cnc2ccccc2n1,,inactive: -0.195%
COc1ccc(-c2[nH]c(-c3ccccc3)nc2SCC(=O)NC2CCCC2)cc1,"inconclusive [inhibitor, partial curve]",
Cc1ccc(S(=O)(=O)NCCC(=O)Nc2nnc(C3CC3)s2)cc1C,,inactive: -8.63%
COc1cccc(N2CCN(CC(=O)C34CC5CC(CC(C5)C3)C4)CC2)c1,,inactive: -7.53%
COC(=O)c1ccccc1NC(=O)Oc1ccc(F)cc1,"inconclusive [inhibitor, single point]",
CCN(CC)S(=O)(=O)c1ccc(N2CCOCC2)c(NS(=O)(=O)c2ccc(C)c(C)c2)c1,,inactive: -5.24%
Cc1cc(C)cc(OC(C)c2ccnc3nc(/N=C/N(C)C)nn23)c1 (stereo unspecified),"inconclusive [inhibitor, partial curve]",
Cn1c(=Nc2ccc(N3CCOCC3)cc2)ccc2ccccc21,,inactive: -8.86%
O=c1oc2c3c4c(cc2c2c1CCC2)OCCN4CCC3,"inconclusive [inhibitor, partial curve]",
CC(C)Nc1nc(NC(C)C)nc(SCCOC(=O)Nc2ccc(Cl)cc2Cl)n1,,inactive: -18.4%
COc1ccccc1CNc1ncnc2ccc(-c3c(C)noc3C)cc12,active: 6.31 µM,
CCOc1ccc(C(=O)Nc2c(C(N)=O)oc3ccccc23)cc1,"inconclusive [inhibitor, partial curve, poor fit]",
COc1ccc2c(c1)CCc1c(C(=O)N3CCCCCC3)noc1-2,active: 10 µM,
COc1ccccc1-c1coc2cc(O)ccc2c1=O,"inconclusive [inhibitor, partial curve]",
COC(=O)C1=C(C)NC(C)=C(C(=O)OC)C1c1ccc(-c2cccc(Cl)c2Cl)o1,"inconclusive [inhibitor, partial curve]",
CCOc1ccc2[nH]c(=S)[nH]c2c1,"inconclusive [inhibitor, partial curve, poor fit]",
O=C(NCCCN1CCOCC1)c1ccc(-n2nc(C(F)(F)F)cc2-c2cccs2)cc1,,inactive: -4.83%
CC1CC(C)(C)CC2(C1)NC(=S)N(c1ccccc1)N2 (stereo unspecified),,inactive: -9.29%
CN(C)CCNc1oc(/C=C/c2ccccc2)nc1C#N,"inconclusive [inhibitor, partial curve]",

Compound,Potency,"activity change, negative = inhibition"
COc1ccc(Oc2coc3c(CN4CCOCC4)c(O)ccc3c2=O)cc1,"inconclusive [inhibitor, single point]",
O=C(CN1C(=O)S/C(=C/c2cccnc2)C1=O)N1CCOCC1,,inactive: -8.22%
COC(=O)Cn1c(=NC(=O)c2cc(OC)c(OC)c(OC)c2)sc2cc(OC)ccc21,"inconclusive [inhibitor, partial curve]",
CC(C)c1nnc(NC(=O)Cn2nc(-c3ccc4c(c3)OCCO4)ccc2=O)s1,"inconclusive [inhibitor, partial curve]",
COc1ccc(NC(=O)CNc2cccc(C#N)c2)cc1Cl,,inactive: -20.9%
Cc1cccc(N2CCN(C(=O)c3ccccc3NC(=O)C3CC=CCC3C(=O)O)CC2)c1 (stereo unspecified),,inactive: -5.64%
CCOC(=O)CSc1nnc(CCCCCN2C(=O)c3cccc4cccc(c34)C2=O)o1,"inconclusive [inhibitor, single point]",
Cc1ccc2nc(NC(=O)c3cc(-c4ccco4)nc4ccccc34)sc2c1,"inconclusive [inhibitor, partial curve]",
Cc1ccc(NC2=Nc3ccccc3CC2)cc1,active: 31.6 µM,
COc1ccc2c(c1)[nH]c1c(=O)n(CCc3cnc[nH]3)cnc12,,inactive: -12.2%
Cc1cccc(/C=N/NC(=O)c2cc3c(s2)-c2ccccc2CC3)c1,"inconclusive [inhibitor, partial curve]",
O=C(/C=C/c1cccc([N+](=O)[O-])c1)NCC1CCCO1 (stereo unspecified),active: 6.31 µM,
COCCCNC(=O)/C(C#N)=c1\s/c(=C\c2ccccc2OC(F)F)c(=O)n1CCCOC,"inconclusive [inhibitor, partial curve]",
CS(=O)(=O)c1cnc2c(-c3ccc(F)cc3)cnn2c1N,"inconclusive [inhibitor, single point]",
COc1ccc2c(c1)c(C(=O)CN1CCN(C(=O)c3ccco3)CC1)c(C)n2C,,inactive: 3.53%
CCOC(=O)C1CCN(CC(=O)Nc2c(C(=O)OC)[nH]c3cccc(C)c23)CC1,"inconclusive [inhibitor, partial curve]",
Cc1cc2n(n1)SC(Nc1ccc(F)c(Cl)c1)N2 (stereo unspecified),,inactive: -28.4%
COc1ccc2c(C)cc(=O)oc2c1,"inconclusive [inhibitor, partial curve]",
Cc1nn(-c2nc3ccccc3[nH]2)c(N)c1-c1ccccc1,"inconclusive [inhibitor, partial curve]",
COC(=O)c1ccc(CN2[C@@H]3C[C@@H](O)CC[C@@H]3C[C@H]2C(=O)OC)cc1,,inactive: -4.34%
COC(=O)c1ccc(C(=O)OC)c(NS(=O)(=O)c2ccc(NC(C)=O)cc2)c1,"inconclusive [inhibitor, partial curve]",
COc1ccc(CNC(=O)c2c(N)n(CCCN3CCOCC3)c3nc4ccccc4nc23)cc1,"inconclusive [inhibitor, partial curve]",
O=C1CCCC2=C1C1(CCCCC1)N=C(Nc1nc3ccccc3s1)N2,"inconclusive [inhibitor, single point]",
